Results published in PubChem BioAssay AID1458 (National Center for Advancing Translational Sciences (NCATS), 2008).
Hit rate of the full screen: of about 210,000 compounds, about 5,900 (2.8%) were called active. The inconclusive results got no clear call from the source; some entries with a clear call stand among them for comparison. Calls follow the shape of the dose curve; as a rule, active = well fitted activation curve with a large enough effect; inconclusive = small, poorly fitted or top-dose-only effect; inactive = no such curve, though single readings can be large or run the other way. A potency beside an inconclusive call is a rough fit, not a confirmed value.

Experiment: qHTS Assay for Enhancers of SMN2 Splice Variant Expression; also: nearly all actives have a fitted effect of over 55% in size; as to activity change, positive = activation: % of control where 0% means no effect
Conditions: HEK293 SMN2-luciferase splicing reporter, luminescence, 30-36 h; activity change, positive = activation: at 46.1 µM (top of the series)
Summary of the method: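 HEK293 cells carry an SMN2 minigene-luciferase reporter in which exon 7 inclusion puts luciferase in frame. Cells were seeded at 2000 cells/well, attached for 10-12 hours, then exposed to compounds for 30-36 hours at 37C before ONE-Glo luminescence.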
Potency is read from the fitted curve at half-maximal effect; tags tell the direction and shape of the fitted curve.

SMILES	Potency	activity change, positive = activation
Cc1cc(N/N=C/c2cccc(Br)c2)nc2ccccc12	active: 12.6 µM	–
CCCCCCCC/C=C\CCCCCCCCOC[C@H](COP(=O)([O-])OCC[N+](C)(C)C)OC(C)=O	inactive	–
COc1ccccc1CNC(=O)C1CC(c2ccccc2[N+](=O)[O-])=NO1 (stereo unspecified)	inconclusive: 0.0562 µM [activator, full curve, poor fit]	–
COc1ccc(CSc2nnc(C)s2)cc1F	inconclusive: 10 µM [activator, partial curve]	–
O=C(Nc1nnc(C2CCCCC2)s1)c1ccco1	inconclusive: 12.6 µM [activator, single point]	–
O=C(CSc1nc2ccccc2c(=O)n1-c1ccccc1Cl)Nc1cccc(S(=O)(=O)N2CCOCC2)c1	–	inactive: 25.9%
CCCCCCCCCCCCCCC[C@H](O)[C@@H](N)CO	inactive	–
Cc1ccnc(NC(=O)C2COc3ccccc3O2)c1 (stereo unspecified)	inconclusive: 5.62 µM [activator, single point]	–
COc1cc(Cl)c(S(=O)(=O)NCc2ccccn2)cc1Cl	inconclusive: 3.98 µM [activator, full curve, poor fit]	–
C=CCn1c(O)c(N=NC(=O)CNC(=O)c2ccco2)c2ccccc21	–	inactive: 15%
CCOc1ccccc1NC(=O)N1c2ccccc2Sc2ccccc21	–	inconclusive: 185% [activator]
Cc1ccc(C)c(NC(CC(=O)c2ccccc2)C(=O)OCC(=O)c2cccs2)c1 (stereo unspecified)	inconclusive: 35.5 µM [activator, single point]	–
CCn1c(CNC(C)=O)nnc1SCC(=O)c1ccc(Br)cc1	inconclusive: 6.31 µM [activator, partial curve, poor fit]	–
Cc1cc(N2CCOCC2)ncc1[N+](=O)[O-]	–	inactive: 13.7%
Cc1noc(C)c1C(=O)N1CCC2(CCN(C(=O)NC(C)C)CC2)CC1	–	inactive: 0.482%
C/C(=N\NC(=O)c1csc2ccccc12)c1ccc(O)cc1	–	inconclusive: 31.7% [activator]
CN(CC(CC(=O)Nc1nncs1)c1ccccc1)S(=O)(=O)c1ccc(Br)cc1 (stereo unspecified)	–	inactive: 24.9%
COc1cc2c(cc1NC(=O)CSc1ccccn1)oc1ccccc12	–	inactive: 4.48%
O=C(N/N=C/c1ccncc1)c1ccc2c(c1)OCO2	inconclusive: 15.8 µM [activator, single point]	–
COc1ccc(C2C(C#N)=C(N)Oc3cc(N)ccc32)cc1OC (stereo unspecified)	inconclusive: 35.5 µM [activator, single point]	–
Cc1ccc(CNC(=O)NC2CCCCC2)cc1	inconclusive: 20 µM [activator, partial curve, poor fit]	–
